These are yes or no findings as the source states them, for the method shown. Binding seen in cells or lysates may run through a third protein. Some entries that bind do so weakly or less than the wild type. For part of these data: Tags and fused reporters may be left off the sequences shown.

Protein sequences, listed by entry. Tags and fused reporters are not part of them. Residues count along the entry.
UniProt P11021, residues 19-654: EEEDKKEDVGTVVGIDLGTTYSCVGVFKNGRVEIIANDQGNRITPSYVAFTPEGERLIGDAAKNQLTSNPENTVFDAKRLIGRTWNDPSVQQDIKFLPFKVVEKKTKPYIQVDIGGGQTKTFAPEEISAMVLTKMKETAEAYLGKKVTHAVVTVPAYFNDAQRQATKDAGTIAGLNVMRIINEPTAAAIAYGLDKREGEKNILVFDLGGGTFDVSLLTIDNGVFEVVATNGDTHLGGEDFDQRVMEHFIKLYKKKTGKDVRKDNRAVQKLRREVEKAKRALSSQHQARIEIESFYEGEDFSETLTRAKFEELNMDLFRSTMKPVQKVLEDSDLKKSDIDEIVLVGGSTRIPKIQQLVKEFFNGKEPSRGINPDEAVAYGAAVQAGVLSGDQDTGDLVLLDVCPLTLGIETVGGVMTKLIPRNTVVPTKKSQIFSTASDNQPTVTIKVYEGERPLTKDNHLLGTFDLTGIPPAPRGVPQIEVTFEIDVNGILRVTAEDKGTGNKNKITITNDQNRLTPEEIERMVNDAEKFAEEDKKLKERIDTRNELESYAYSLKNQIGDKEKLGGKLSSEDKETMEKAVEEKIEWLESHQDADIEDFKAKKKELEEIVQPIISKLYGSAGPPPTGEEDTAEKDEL
UniProt Q00613: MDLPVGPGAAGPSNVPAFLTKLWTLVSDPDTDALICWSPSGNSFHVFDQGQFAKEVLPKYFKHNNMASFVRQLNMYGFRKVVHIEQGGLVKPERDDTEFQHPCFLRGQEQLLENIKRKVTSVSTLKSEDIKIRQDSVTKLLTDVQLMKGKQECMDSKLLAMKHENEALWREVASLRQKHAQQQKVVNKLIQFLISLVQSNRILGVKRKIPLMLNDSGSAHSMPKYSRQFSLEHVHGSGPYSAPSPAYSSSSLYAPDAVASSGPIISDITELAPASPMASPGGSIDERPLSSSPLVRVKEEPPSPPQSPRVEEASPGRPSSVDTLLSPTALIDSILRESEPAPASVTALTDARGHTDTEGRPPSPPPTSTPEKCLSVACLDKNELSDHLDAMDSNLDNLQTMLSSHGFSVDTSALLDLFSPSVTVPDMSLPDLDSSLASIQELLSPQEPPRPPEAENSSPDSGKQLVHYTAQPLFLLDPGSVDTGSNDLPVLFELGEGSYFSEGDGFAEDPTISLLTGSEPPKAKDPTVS
UniProt P10809, residues 27-573: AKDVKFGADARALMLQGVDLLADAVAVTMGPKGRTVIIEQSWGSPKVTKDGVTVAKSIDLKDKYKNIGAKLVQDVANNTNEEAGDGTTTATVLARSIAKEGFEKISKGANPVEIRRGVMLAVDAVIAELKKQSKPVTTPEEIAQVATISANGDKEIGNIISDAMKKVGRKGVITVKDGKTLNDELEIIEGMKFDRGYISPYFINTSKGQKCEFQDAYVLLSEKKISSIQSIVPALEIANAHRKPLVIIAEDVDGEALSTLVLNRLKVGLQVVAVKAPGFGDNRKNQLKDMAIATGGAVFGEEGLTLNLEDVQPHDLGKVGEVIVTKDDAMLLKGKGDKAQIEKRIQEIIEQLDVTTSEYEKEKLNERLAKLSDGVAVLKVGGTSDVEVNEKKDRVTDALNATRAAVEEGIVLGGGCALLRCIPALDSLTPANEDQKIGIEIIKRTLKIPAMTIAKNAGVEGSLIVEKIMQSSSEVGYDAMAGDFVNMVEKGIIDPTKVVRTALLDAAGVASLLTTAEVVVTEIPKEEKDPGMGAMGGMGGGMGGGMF

The values that follow come from article PMC11402128, “The stability of FKBP9 maintained by BiP is crucial for glioma progression” (Genes & Diseases, 2023).

The target of assay [1] is T1, Flag-HA-labeled FKBP9 (FKBP9-HA) (human) (UniProt O95302).
T1 sequence: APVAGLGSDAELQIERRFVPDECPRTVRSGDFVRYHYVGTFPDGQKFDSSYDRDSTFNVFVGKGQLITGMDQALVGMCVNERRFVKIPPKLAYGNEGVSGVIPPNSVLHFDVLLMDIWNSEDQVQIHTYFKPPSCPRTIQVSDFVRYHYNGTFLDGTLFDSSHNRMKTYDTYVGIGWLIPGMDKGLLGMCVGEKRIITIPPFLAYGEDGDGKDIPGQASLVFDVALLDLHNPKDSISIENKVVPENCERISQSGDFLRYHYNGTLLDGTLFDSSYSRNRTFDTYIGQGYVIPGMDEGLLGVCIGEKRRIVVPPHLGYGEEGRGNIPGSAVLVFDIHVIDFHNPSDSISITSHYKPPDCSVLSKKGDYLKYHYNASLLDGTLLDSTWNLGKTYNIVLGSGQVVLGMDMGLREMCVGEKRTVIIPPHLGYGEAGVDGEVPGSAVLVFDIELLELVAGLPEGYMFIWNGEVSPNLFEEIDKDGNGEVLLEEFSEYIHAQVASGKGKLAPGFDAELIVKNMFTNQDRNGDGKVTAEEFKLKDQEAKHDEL
The assay can be described thus: co-IP; HA antibody co-immunoprecipitation from lysate of T98G cells expressing HA-tagged proteins (FKBP9-HA, 1461-HA, 903-HA, BiP-HA or EGFP-HA), detected by Western blot; buffer 50 mM Tris-HCl pH 7.4, 150 mM NaCl, 3 mM EDTA, 0.5% Triton X-100. (Immunoblotting shows a protein as a band on a membrane.)

Assay [2] has as its target T2, FK506-binding protein 9 (FKBP9), endogenous (human (endogenous in T98G and U251)) (UniProt O95302).
T2 sequence: T1 sequence
Briefly: co-IP; endogenous proteins; FKBP9 antibody co-immunoprecipitation from protein lysate of T98G and U251 cells, IgG as negative control, Western blot.

Assay [3] addresses Flag-HA-labeled BiP (BiP-HA) (human) (UniProt P11021). The assay can be described thus: co-IP; HA antibody co-immunoprecipitation from lysate of T98G cells expressing HA-tagged proteins (FKBP9-HA, 1461-HA, 903-HA, BiP-HA or EGFP-HA), detected by Western blot; buffer 50 mM Tris-HCl pH 7.4, 150 mM NaCl, 3 mM EDTA, 0.5% Triton X-100.

Consider “HSF1, endogenous (from UniProt Q00613 1-529)”, for which the binding result in assay [1] is on record as “no binding”.

On to “Hsp60, endogenous (from UniProt P10809 27-573)”, for which the binding entry in assay [1] is recorded as “no binding”.

“binding immunoglobulin protein (BiP), endogenous (from UniProt P11021 19-654)”: the binding result in assay [2] and in assay [1] was “binds” each time.

B1: human recombinant protein FKBP9 (TP322307, Origene) (natural protein, UniProt O95302 25-570, looked up)
chain: T1 sequence
notes: also called purified FKBP9; source: bought: Origene (TP322307)
B1: the binding result in assay [3] was “binds”.

B2: Calnexin, endogenous (protein, UniProt P27824 21-592)
chain: HDGHDDDVIDIEDDLDDVIEEVEDSKPDTTAPPSSPKVTYKAPVPTGEVYFADSFDRGTLSGWILSKAKKDDTDDEIAKYDGKWEVEEMKESKLPGDKGLVLMSRAKHHAISAKLNKPFLFDTKPLIVQYEVNFQNGIECGGAYVKLLSKTPELNLDQFHDKTPYTIMFGPDKCGEDYKLHFIFRHKNPKTGIYEEKHAKRPDADLKTYFTDKKTHLYTLILNPDNSFEILVDQSVVNSGNLLNDMTPPVNPSREIEDPEDRKPEDWDERPKIPDPEAVKPDDWDEDAPAKIPDEEATKPEGWLDDEPEYVPDPDAEKPEDWDEDMDGEWEAPQIANPRCESAPGCGVWQRPVIDNPNYKGKWKPPMIDNPSYQGIWKPRKIPNPDFFEDLEPFRMTPFSAIGLELWSMTSDIFFDNFIICADRRIVDDWANDGWGLKKAADGAAEPGVVGQMIEAAEERPWLWVVYILTVALPVFLVILFCCSGKKQTSGMEYKKTDAPQPDVKEEEEEKEEEKDKGDEEEEGEEKLEEKQKSDAEEDGGTVSQEEEDRKPKAEEDEILNRSPRNRKPRRE
As to B2, the binding entry in assay [1] is “no binding”.
